{
  "source": "paper PMC4336329",
  "about": "(PLoS ONE, 2015)",
  "note": "The campaign covered roughly 310,000 compounds. About 14,000 (4.5%) showed an effect of 50% or more. Effects have a minus sign here. The list shows a part of the results.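 Note: peak tail current of the secondary pulse compared with the same well before compound.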",
  "data": [
    {"target": "human ether-à-go-go-related gene (hERG) potassium channel (human, UniProt Q12809)", "sequence (Q12809 whole entry, looked up)": "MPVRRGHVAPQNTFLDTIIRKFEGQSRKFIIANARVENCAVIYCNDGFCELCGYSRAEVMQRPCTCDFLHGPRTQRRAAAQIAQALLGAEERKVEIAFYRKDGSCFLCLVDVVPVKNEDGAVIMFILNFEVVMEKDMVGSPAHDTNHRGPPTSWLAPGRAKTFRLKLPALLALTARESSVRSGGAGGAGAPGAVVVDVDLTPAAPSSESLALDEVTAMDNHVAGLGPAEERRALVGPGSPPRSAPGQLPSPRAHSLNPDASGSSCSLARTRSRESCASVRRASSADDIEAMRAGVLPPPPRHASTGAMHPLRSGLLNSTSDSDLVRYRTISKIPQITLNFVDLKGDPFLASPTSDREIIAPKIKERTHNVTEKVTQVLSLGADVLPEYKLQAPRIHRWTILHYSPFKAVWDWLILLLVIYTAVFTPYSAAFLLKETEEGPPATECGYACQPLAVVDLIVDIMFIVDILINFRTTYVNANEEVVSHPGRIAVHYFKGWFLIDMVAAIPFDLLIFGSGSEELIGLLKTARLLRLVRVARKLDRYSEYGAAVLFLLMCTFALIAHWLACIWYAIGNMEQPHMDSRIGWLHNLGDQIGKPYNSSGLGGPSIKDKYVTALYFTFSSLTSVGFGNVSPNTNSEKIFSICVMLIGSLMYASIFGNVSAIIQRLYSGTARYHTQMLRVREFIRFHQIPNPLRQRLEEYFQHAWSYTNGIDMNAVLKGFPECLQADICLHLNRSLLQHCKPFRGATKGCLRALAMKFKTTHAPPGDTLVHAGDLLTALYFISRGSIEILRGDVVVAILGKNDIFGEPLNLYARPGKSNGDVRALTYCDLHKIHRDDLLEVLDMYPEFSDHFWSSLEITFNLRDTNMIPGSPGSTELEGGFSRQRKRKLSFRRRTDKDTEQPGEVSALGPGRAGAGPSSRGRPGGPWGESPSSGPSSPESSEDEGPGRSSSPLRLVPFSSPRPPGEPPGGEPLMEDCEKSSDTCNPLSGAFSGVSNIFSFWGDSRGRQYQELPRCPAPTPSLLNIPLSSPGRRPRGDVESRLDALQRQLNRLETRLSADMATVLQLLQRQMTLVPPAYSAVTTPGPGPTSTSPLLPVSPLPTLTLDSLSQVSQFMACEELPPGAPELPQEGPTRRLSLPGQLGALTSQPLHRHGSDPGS", "test": "primary screen, population patch clamp on CHO cells stably expressing hERG", "units": {"hERG current change (%, negative = inhibition) at 10uM": "%"}, "values": [
      {"smiles": "Cc1ccc(NC(=S)NCCc2ccc(S(N)(=O)=O)cc2)c(C)c1", "hERG current change (%, negative = inhibition) at 10uM": -8.43},
      {"smiles": "O=C(OCCNc1ccc(C(F)(F)F)cc1[N+](=O)[O-])c1cc2ccccc2oc1=O", "hERG current change (%, negative = inhibition) at 10uM": 4.72},
      {"smiles": "COc1ccc(-c2ccc(CCC(=O)O)n2CC2CCCO2)cc1", "note": "(stereo not drawn)", "hERG current change (%, negative = inhibition) at 10uM": 19.4},
      {"smiles": "[N-]=[N+]=NC[C@H](Cc1ccccc1)N1CC[C@@H](O)CCC1=O", "hERG current change (%, negative = inhibition) at 10uM": 3.94},
      {"smiles": "CCOc1ccc(NC(C)=O)cc1[N+](=O)[O-]", "hERG current change (%, negative = inhibition) at 10uM": 6.58},
      {"smiles": "COc1ccccc1NC(=O)Cc1cccc2ccccc12", "hERG current change (%, negative = inhibition) at 10uM": 14.1},
      {"smiles": "Cc1ccc(S(=O)(=O)N2CC=C(C(=O)NCCC(C)C)CC2)cc1", "hERG current change (%, negative = inhibition) at 10uM": -10.6},
      {"smiles": "Cc1cccc(N(CC(=O)NCc2ccccc2)C(=O)Cn2nnc(-c3ccc(C)o3)n2)c1", "hERG current change (%, negative = inhibition) at 10uM": -9.54},
      {"smiles": "O=C(CN1CCN(S(=O)(=O)c2ccc(Br)cc2)CC1)N/N=C/c1cccs1", "hERG current change (%, negative = inhibition) at 10uM": -58.4},
      {"smiles": "CCCCS(=O)(=O)N1CCC(C(=O)Oc2ccccc2OC)CC1", "hERG current change (%, negative = inhibition) at 10uM": -9.14},
      {"smiles": "CSCc1nnc(NC(=O)c2ccc(S(=O)(=O)N3CCCCC3C)cc2)o1", "note": "(stereo not drawn)", "hERG current change (%, negative = inhibition) at 10uM": -2.38},
      {"smiles": "CCCNC(=O)c1ccc(COc2ccc(C)cc2)o1", "hERG current change (%, negative = inhibition) at 10uM": 7.44},
      {"smiles": "O=C(CNS(=O)(=O)c1ccccc1)Nc1cccc([N+](=O)[O-])c1", "hERG current change (%, negative = inhibition) at 10uM": -26.2},
      {"smiles": "COc1ccccc1N1CCN(/N=C/c2cc([N+](=O)[O-])ccc2Cl)CC1", "hERG current change (%, negative = inhibition) at 10uM": 37.3},
      {"smiles": "COC(=O)c1c(C(=O)OC)c2ccccn2c1C(=O)c1ccccc1", "hERG current change (%, negative = inhibition) at 10uM": 6.74},
      {"smiles": "O=C(N/N=C/c1c(Cl)cccc1Cl)c1ccc(-n2cnnn2)cc1", "hERG current change (%, negative = inhibition) at 10uM": 7.93},
      {"smiles": "CC(C)(C)n1nnnc1C(c1ccc(C#N)cc1)N1CCCC2(CCCCC2)C1", "note": "(stereo not drawn)", "hERG current change (%, negative = inhibition) at 10uM": 0.66},
      {"smiles": "Cl.O=C(COc1ccc(Cl)cc1)N(c1ccc(Cl)cc1)C1CN2CCC1CC2", "note": "(stereo not drawn)", "hERG current change (%, negative = inhibition) at 10uM": -65.1},
      {"smiles": "CCCCCCc1cc2cc(C(=O)Nc3ccccc3OC)c(=O)oc2cc1O", "hERG current change (%, negative = inhibition) at 10uM": 6.4},
      {"smiles": "CCOc1ccc(S(=O)(=O)Nc2ccc3c(c2)OCO3)c2cccnc12", "hERG current change (%, negative = inhibition) at 10uM": -2.48},
      {"smiles": "CCC[C@@H](O)c1cc2cc(OC)c(OC)cc2c(=O)o1", "hERG current change (%, negative = inhibition) at 10uM": -2.02},
      {"smiles": "CC(NC(=O)c1cc(S(=O)(=O)N(C)C)ccc1Cl)c1ccc(-n2ccnc2)cc1", "note": "(stereo not drawn)", "hERG current change (%, negative = inhibition) at 10uM": -76.8},
      {"smiles": "COc1ccc(Cc2nnc(-c3ccccc3)o2)cc1", "hERG current change (%, negative = inhibition) at 10uM": -25},
      {"smiles": "CCc1cc(C(=O)Nc2ccc(OC)nc2)sc1C", "hERG current change (%, negative = inhibition) at 10uM": -11.7}
    ]}
  ]
}
